Experimental data reported in the supplement of paper PMC8728848.
The other results are listed elsewhere or left out.

Legend:
Test in all cases: glycan array binding signal (z-score within array); higher = stronger binding
Settings in all cases: glycan notation: IUPAC condensed, linker removed
[1] = molecular target: Fuc(a1-2)[GalNAc(b1-3)]Gal
Method in brief: (§1)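 Columns mapping to the same glycan were averaged after glycan names were converted to IUPAC-condensed notation. The data come from 3228 arrays in the Consortium for Functional Glycomics database, limited to those with an available protein sequence. Binding is reported as a within-array Z-score averaged across arrays of one protein sequence and across linkers.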

[2] = molecular target: Fuc(a1-3)GlcNAc
Method in brief: as §1

[3] = molecular target: Fuc(a1-3)[Gal(b1-4)]Glc6S
Method in brief: as §1

[4] = molecular target: Fuc(a1-3)[Gal(b1-4)]GlcNAc
Method in brief: as §1

[5] = molecular target: Fuc(a1-3)[Gal(b1-4)]GlcNAc(b1-2)Man
Method in brief: as §1

[6] = molecular target: Fuc(a1-3)[Gal(b1-4)]GlcNAc(b1-2)Man(a1-3)[Fuc(a1-3)[Gal(b1-4)]GlcNAc(b1-2)Man(a1-6)]Man(b1-4)GlcNAc(b1-4)GlcNAc
Method in brief: as §1

[7] = molecular target: Fuc(a1-3)[Gal(b1-4)]GlcNAc(b1-2)Man(a1-3)[Fuc(a1-3)[Gal(b1-4)]GlcNAc(b1-2)Man(a1-6)]Man(b1-4)GlcNAc(b1-4)[Fuc(a1-6)]GlcNAc
Method in brief: as §1

[8] = molecular target: Fuc(a1-3)[Gal(b1-4)]GlcNAc(b1-3)Gal(b1-3)[Fuc(a1-4)]GlcNAc
Method in brief: as §1

[9] = molecular target: Fuc(a1-3)[Gal(b1-4)]GlcNAc(b1-3)Gal(b1-4)[Fuc(a1-3)]GlcNAc
Method in brief: as §1

[10] = molecular target: Fuc(a1-3)[Gal(b1-4)]GlcNAc(b1-3)Gal(b1-4)[Fuc(a1-3)]GlcNAc(b1-3)Gal(b1-4)[Fuc(a1-3)]GlcNAc
Method in brief: as §1

[11] = molecular target: Fuc(a1-3)[Gal(b1-4)]GlcNAc(b1-3)GalNAc
Method in brief: as §1

[12] = molecular target: Fuc(a1-3)[Gal(b1-4)]GlcNAc(b1-6)GalNAc
Method in brief: as §1

[13] = molecular target: Fuc(a1-3)[Gal(b1-4)]GlcNAc(b1-6)[Gal(b1-3)GlcNAc(b1-3)]Gal(b1-4)Glc
Method in brief: as §1

[14] = molecular target: Fuc(a1-3)[Gal(b1-4)]GlcNAc6S
Method in brief: as §1

[15] = molecular target: Fuc(a1-3)[Gal3S(b1-4)]Glc
Method in brief: as §1

[16] = molecular target: Fuc(a1-3)[Gal3S(b1-4)]GlcNAc
Method in brief: as §1

[17] = molecular target: Fuc(a1-3)[Gal3S(b1-4)]GlcNAc6S
Method in brief: as §1

[18] = molecular target: Fuc(a1-3)[GalNAc(b1-4)]GlcNAc
Method in brief: as §1

[19] = molecular target: Fuc(a1-3)[GalNAc(b1-4)]GlcNAc6S
Method in brief: as §1

[20] = molecular target: Fuc(a1-4)GlcNAc
Method in brief: as §1

[21] = molecular target: Fuc(b1-3)GlcNAc
Method in brief: as §1

[22] = molecular target: Gal(a1-2)Gal
Method in brief: as §1

[23] = molecular target: Gal(a1-3)Gal
Method in brief: as §1

[24] = molecular target: Gal(a1-3)Gal(b1-3)GlcNAc
Method in brief: as §1

[25] = molecular target: Gal(a1-3)Gal(b1-3)GlcNAc(b1-2)Man
Method in brief: as §1

[26] = molecular target: Gal(a1-3)Gal(b1-3)GlcNAc(b1-2)Man(a1-3)[Gal(a1-3)Gal(b1-3)GlcNAc(b1-2)Man(a1-6)]Man(b1-4)GlcNAc(b1-4)GlcNAc
Method in brief: as §1

[27] = molecular target: Gal(a1-3)Gal(b1-3)GlcNAc(b1-3)GalNAc
Method in brief: as §1

[28] = molecular target: Gal(a1-3)Gal(b1-3)GlcNAc(b1-6)GalNAc
Method in brief: as §1

[29] = molecular target: Gal(a1-3)Gal(b1-3)[Fuc(a1-4)]GlcNAc(b1-2)Man(a1-3)[Gal(a1-3)Gal(b1-3)[Fuc(a1-4)]GlcNAc(b1-2)Man(a1-6)]Man(b1-4)GlcNAc(b1-4)GlcNAc
Method in brief: as §1

[30] = molecular target: Gal(a1-3)Gal(b1-4)Glc
Method in brief: as §1

[31] = molecular target: Gal(a1-3)Gal(b1-4)GlcNAc
Method in brief: as §1

[32] = molecular target: Gal(a1-3)Gal(b1-4)GlcNAc(b1-2)Man
Method in brief: as §1

[33] = molecular target: Gal(a1-3)Gal(b1-4)GlcNAc(b1-2)Man(a1-3)[Gal(a1-3)Gal(b1-4)GlcNAc(b1-2)Man(a1-6)]Man(b1-4)GlcNAc(b1-4)GlcNAc
Method in brief: as §1

[34] = molecular target: Gal(a1-3)Gal(b1-4)GlcNAc(b1-3)GalNAc
Method in brief: as §1

[35] = molecular target: Gal(a1-3)Gal(b1-4)GlcNAc(b1-6)GalNAc
Method in brief: as §1

[36] = molecular target: Gal(a1-3)Gal(b1-4)[Fuc(a1-3)]GlcNAc
Method in brief: as §1

[37] = molecular target: Gal(a1-3)Gal(b1-4)[Fuc(a1-3)]GlcNAc(b1-2)Man(a1-3)[Gal(a1-3)Gal(b1-4)[Fuc(a1-3)]GlcNAc(b1-2)Man(a1-6)]Man(b1-4)GlcNAc(b1-4)GlcNAc
Method in brief: as §1

[38] = molecular target: Gal(a1-3)GalNAc
Method in brief: as §1

[39] = molecular target: Gal(a1-3)[Gal(a1-4)]Gal(b1-4)GlcNAc
Method in brief: as §1

[40] = molecular target: Gal(a1-4)Gal(b1-3)GlcNAc(b1-2)Man(a1-3)[Gal(a1-4)Gal(b1-3)GlcNAc(b1-2)Man(a1-6)]Man(b1-4)GlcNAc(b1-4)GlcNAc
Method in brief: as §1

[41] = molecular target: Gal(a1-4)Gal(b1-4)Glc
Method in brief: as §1

[42] = molecular target: Gal(a1-4)Gal(b1-4)GlcNAc
Method in brief: as §1

[43] = molecular target: Gal(a1-4)Gal(b1-4)GlcNAc(b1-2)Man(a1-3)[Gal(a1-4)Gal(b1-4)GlcNAc(b1-2)Man(a1-6)]Man(b1-4)GlcNAc(b1-4)GlcNAc
Method in brief: as §1

[44] = molecular target: Gal(a1-4)Gal(b1-4)GlcNAc(b1-3)Gal(b1-4)Glc
Method in brief: as §1

[45] = molecular target: Gal(a1-4)GlcNAc
Method in brief: as §1

B1: DrGal3 (Danio rerio) (protein)
chain: MDLSDALDAPPQQNNQQAGGPVWPGQPANPVWPGQPANPTWPGQPNQPAWPGQPNQQWPGQPGQPTAPGWPGPAPQTGPYGAPGQAPQVLTVPLDFPLQNGAYNKMLITINGEVKPNAKQFTVNLRRGNDIAFHINPRFSEGGKPVIVRNSMIGNNWGREERELPSFPFVPGKPFEMKILITDTEYKVAVNKSHLLEFKHRVFELNQITGLSIYNDVTLSTVNVETLQ
glycan array binding signal (z-score) [1]: -0.274 | glycan array binding signal (z-score) [2]: -0.278 | glycan array binding signal (z-score) [3]: -0.225 | glycan array binding signal (z-score) [4]: -0.229 | glycan array binding signal (z-score) [5]: -0.223 | glycan array binding signal (z-score) [6]: -0.258 | glycan array binding signal (z-score) [7]: -0.268 | glycan array binding signal (z-score) [8]: -0.252 | glycan array binding signal (z-score) [9]: -0.26 | glycan array binding signal (z-score) [10]: -0.249 | glycan array binding signal (z-score) [11]: -0.254 | glycan array binding signal (z-score) [12]: -0.166 | glycan array binding signal (z-score) [13]: -0.249 | glycan array binding signal (z-score) [14]: -0.125 | glycan array binding signal (z-score) [15]: -0.188 | glycan array binding signal (z-score) [16]: -0.221 | glycan array binding signal (z-score) [17]: -0.244 | glycan array binding signal (z-score) [18]: -0.156 | glycan array binding signal (z-score) [19]: -0.227 | glycan array binding signal (z-score) [20]: -0.202 | glycan array binding signal (z-score) [21]: -0.277 | glycan array binding signal (z-score) [22]: -0.233 | glycan array binding signal (z-score) [23]: -0.263 | glycan array binding signal (z-score) [24]: -0.243 | glycan array binding signal (z-score) [25]: -0.255 | glycan array binding signal (z-score) [26]: -0.214 | glycan array binding signal (z-score) [27]: -0.287 | glycan array binding signal (z-score) [28]: -0.209 | glycan array binding signal (z-score) [29]: -0.227 | glycan array binding signal (z-score) [30]: -0.233 | glycan array binding signal (z-score) [31]: -0.198 | glycan array binding signal (z-score) [32]: -0.211 | glycan array binding signal (z-score) [33]: -0.088 | glycan array binding signal (z-score) [34]: -0.195 | glycan array binding signal (z-score) [35]: -0.146 | glycan array binding signal (z-score) [36]: -0.273 | glycan array binding signal (z-score) [37]: -0.205 | glycan array binding signal (z-score) [38]: -0.007 | glycan array binding signal (z-score) [39]: 0.637 | glycan array binding signal (z-score) [40]: -0.265 | glycan array binding signal (z-score) [41]: -0.111 | glycan array binding signal (z-score) [42]: -0.224 | glycan array binding signal (z-score) [43]: -0.251 | glycan array binding signal (z-score) [44]: -0.152 | glycan array binding signal (z-score) [45]: -0.242
